# Laboratory results taken from PMC4336329 (PLoS ONE, 2015).
# The campaign covered roughly 310,000 compounds. About 2,200 (0.71%) showed an effect of 50% or more. The effect is printed as a negative number. Some of the results follow.
# Target: human ether-à-go-go-related gene (hERG) potassium channel (human, UniProt Q12809)
# Test: primary screen, population patch clamp on CHO cells stably expressing hERG
# Sequence of human ether-à-go-go-related gene (hERG) potassium channel (Q12809 whole entry, looked up): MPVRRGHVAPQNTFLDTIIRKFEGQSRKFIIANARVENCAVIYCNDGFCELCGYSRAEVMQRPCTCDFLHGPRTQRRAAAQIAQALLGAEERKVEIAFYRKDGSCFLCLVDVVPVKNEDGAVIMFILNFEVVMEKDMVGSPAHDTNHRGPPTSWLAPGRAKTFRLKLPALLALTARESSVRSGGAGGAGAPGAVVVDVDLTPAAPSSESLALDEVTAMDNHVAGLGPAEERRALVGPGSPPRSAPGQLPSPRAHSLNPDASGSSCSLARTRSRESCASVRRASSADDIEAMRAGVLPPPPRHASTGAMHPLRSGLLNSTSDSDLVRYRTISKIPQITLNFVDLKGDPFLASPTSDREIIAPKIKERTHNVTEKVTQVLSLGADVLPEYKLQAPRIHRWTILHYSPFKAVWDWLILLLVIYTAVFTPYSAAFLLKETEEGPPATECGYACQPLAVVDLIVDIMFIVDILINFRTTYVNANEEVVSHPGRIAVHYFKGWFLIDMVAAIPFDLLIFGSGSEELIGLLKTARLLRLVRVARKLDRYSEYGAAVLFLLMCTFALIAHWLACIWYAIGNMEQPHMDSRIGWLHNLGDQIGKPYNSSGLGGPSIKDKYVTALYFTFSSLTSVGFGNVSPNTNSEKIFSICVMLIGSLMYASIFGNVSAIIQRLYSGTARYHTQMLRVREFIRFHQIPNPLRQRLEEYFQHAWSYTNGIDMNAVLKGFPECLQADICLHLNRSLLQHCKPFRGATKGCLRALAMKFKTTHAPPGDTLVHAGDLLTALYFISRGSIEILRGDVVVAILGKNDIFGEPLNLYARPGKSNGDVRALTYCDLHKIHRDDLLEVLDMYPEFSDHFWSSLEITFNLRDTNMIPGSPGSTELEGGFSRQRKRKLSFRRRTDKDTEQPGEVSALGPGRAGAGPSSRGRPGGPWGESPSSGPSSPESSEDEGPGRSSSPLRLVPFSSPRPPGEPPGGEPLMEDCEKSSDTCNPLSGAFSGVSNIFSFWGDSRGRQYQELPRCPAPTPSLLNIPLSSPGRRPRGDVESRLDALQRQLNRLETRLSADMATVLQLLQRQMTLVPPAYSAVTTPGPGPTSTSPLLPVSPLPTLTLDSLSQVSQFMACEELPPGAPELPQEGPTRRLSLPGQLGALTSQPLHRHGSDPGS
row,Compound,"hERG current change (%, negative = inhibition) at 1uM [%]"
1,CCOc1ccc(OCCOc2cccc(C(F)(F)F)c2)cc1,12.5
2,COc1cc(/C=C2\S/C(=N/S(=O)(=O)c3ccc(C)cc3)NC2=O)c([N+](=O)[O-])cc1OC,-11.9
3,O=C(O)CCC(=O)Nc1ccc(C(=O)OCC(=O)c2ccc(Cl)cc2Cl)cc1,10.8
4,Cc1nnc(NC(=O)CSc2cn(CCNC(=O)c3ccccc3)c3ccccc23)s1,9.91
5,CCOc1ccc(N(CC(=O)N2CCCCCC2)S(C)(=O)=O)cc1,14.9
6,Cc1ccc(F)cc1NC(=O)CSc1nnc(CNC(=O)c2ccco2)n1C,1.14
7,O=C(NC(=S)NCCc1ccccn1)c1ccco1,9.94
8,O=C(c1ccc(Br)o1)N(c1ccccn1)C1CCCCC1,6.09
9,CS(=O)(=O)c1ccc(C2=C(c3ccccc3)C(=O)OC2)cc1,2.93
10,CC1(C)CC(=O)C(C=NCCN2CCN(C(=S)Nc3ccc(F)cc3)CC2)=C(O)C1,-5.04
11,COc1ccccc1C/C(N)=N/O,5.42
12,Cc1ccc(S(=O)(=O)Oc2cc(N)c3c(n2)CCC3)cc1,14.6
13,Cl.NC(=O)c1c(NC(=O)Cc2ccccc2)sc2c1CCN(Cc1ccccc1)C2,8.53
14,COc1ccc(-c2ccc(C)cc2)cc1[C@H]1[C@H]2C=CC[C@@H](C)[C@@H]2C(=O)N1Cc1ccccc1,15.6
15,CN(C)c1ccnc(Nc2ccccc2)c1C#N,11.6
16,CCn1cc(CNC(=O)C2CCC(=O)N(C3CCCCCC3)C2)cn1 (centres unmarked),16
17,O=C(Nc1ccc(F)c([N+](=O)[O-])c1)C1CC(=O)N(Cc2ccccc2)C1 (centres unmarked),-4.33
18,O=C(Oc1c(-c2ccccc2)c(=O)n2c3c(cccc13)CC2)c1ccc(Cl)cc1,5.43
19,Cc1c(C(=O)OC(C)C(C)C[N+](C)(C)C)oc2ccccc12.[I-] (centres unmarked),14.4
20,CCCC1=Nc2cc(C(=O)NCCCOCC)ccc2Sc2ccccc21,7.93
21,COc1cc(C(=O)Oc2c(CN3CCOCC3)cc(Cl)c3cccnc23)cc(OC)c1OC,-2.07
22,CCOc1ccc(N(CC(=O)N/N=C/c2ccccn2)S(=O)(=O)c2ccc(Cl)cc2)cc1,10.4

row,Compound,"hERG current change (%, negative = inhibition) at 1uM [%]"
1,Cn1nc(Oc2nc(N3CCOCC3)nc(N3CCOCC3)n2)ccc1=O,0.746
2,CCOC(=O)C1C(=O)N(C(=O)c2ccc(OC)cc2)CC1c1ccccc1 (centres unmarked),13.4
3,CCCSc1oc(-c2ccco2)nc1S(=O)(=O)c1ccccc1,-10.1
4,Cn1c(=O)c2[nH]c(-c3ccccc3Cl)c(O)c2n(C)c1=O,3.49
5,C/C=N\NC(=O)CNC(=O)CNC(=O)c1ccccc1,11.6
6,CC(/C=N/NC(=O)CN1CCN(Cc2ccc(Cl)cc2)CC1)=C\c1ccco1,-34.4
7,CC(=O)Nc1ccc(Nc2ccc(S(=O)(=O)C(F)(F)F)cc2[N+](=O)[O-])cc1,2.42
8,COc1ccccc1N1CCN(C(=O)Nc2cccc(Cl)c2)CC1,5.72
9,CCn1c(C)nnc1SCC(=O)Nc1cccc(C(F)(F)F)c1,14.5
10,Cc1cc(C)c(S(=O)(=O)NC(CC(=O)O)c2cccc([N+](=O)[O-])c2)c(C)c1 (centres unmarked),11.8
11,COc1ccccc1N1CCN(/N=C/c2ccc(O)c(O)c2)CC1,-1.27
12,CCOC(=O)c1ccc(CSc2nnc(C)n2N)o1,9.42
13,Cc1nn(CCC(N)=O)c2nc(-c3cccs3)cc(C(F)(F)F)c12,10.7
14,CC1(C(=O)NC2CCCCCCC2)CCC(=O)N1Cc1ccco1 (centres unmarked),9.51
15,Fc1ccccc1CNC(=S)Nc1cccc(C(F)(F)F)c1,0.631
16,CCNC(=O)c1sccc1-n1cccc1,9.44
17,CCN(CC)c1ccc(NC(=O)c2[nH]c(C)c(C(C)=O)c2C)c(C)c1,6.84
18,COc1cccc(NC(=O)c2ccncc2)c1,14.4
19,CN(C)c1ccc(NS(=O)(=O)c2cccc(Cl)c2)cc1,5.67
20,O=c1c(-c2ccccc2)c[nH]n1-c1cccc([N+](=O)[O-])c1,19.9
21,O=C(/C=N/O)Nc1ccc(F)cc1,0.539
22,COc1ccccc1C1C([N+](=O)[O-])=CC([N+](=O)[O-])=CN1C (centres unmarked),7.2
